Some entries of the source have several records that differ or are many. Only these are listed. There may be further records. Values that stand side by side are repeated measurements across runs, samples, wells, individuals or studies. Counts like (3×) count equal records among those shown.
Tested on: 556581-035-R-J1-PDC complex spheroid viability
Experiment: Anticancer human tumor 556581-035-R-J1-PDC patient-derived ovarian carcinoma cell line growth inhibition
Settings: for viability, T/C: stronger effect = lower value
From the text: Multicellular complex tumor spheroid response to LSD1 Inhibitor Iadademstat in combination with a variety of drugs and investigational agents in selected tumor cell lines
The current study was undertaken to assess response to LSD1 inhibitors in combination with standard-of-care drugs and investigational agents in solid tumor complex spheroid models as well as in the K-562 leukemia. Complex spheroids include a stromal component modeled by human endothelial cells (HUVEC) and fibroblasts modeled by human mesenchymal stem cells (MSCs). The concentration ranges selected for each drug and investigational agent were based upon clinically achievable concentrations if the clinical Cmax of the agent was known.
Compounds. The drugs and investigational agents used in this study are listed on Table 1. All of the agents used, including staurosporine (NSC755774) and gemcitabine (NSC613327), were obtained from the Developmental Therapeutics Program, NCI. FDA-approved anticancer drugs are available from the NCI at http://dtp.nci.nih.gov/branches/dscb/oncology_drugset_explanation.html. Drugs and investigational agents were >95% pure by proton nuclear magnetic resonance (NMR) and liquid chromatography/mass spectrometry (LC/MS). Stock solutions were prepared at 400x in DMSO, stored at -70 degrees C, and diluted in fresh medium prior to their use. The final concentration of DMSO in cell culture wells never exceeded 0.25% (v/v). The FDA-approved anticancer drug set is available from the Developmental Therapeutics Program at https://dtp.cancer.gov/organization/dscb/obtaining/available_plates.htm. All drugs and investigational agents were tested over a range starting from a high concentration at or near the clinical Cmax and decreasing in half-log increments. If the clinical Cmax for an agent had not been determined, the highest concentration tested was 10 microM.
Cell Lines. The patient-derived cancer cell (PDC) lines: 292921-168-R-J2-PDC, K24384-001-R-PDC, and 521955-158-R2-J5-PDC pancreatic carcinomas, 556581-035-R-J1 ovarian carcinoma, 324938-238-R-J1-PDC, 855422-203-R-J1-PDC and 883617-216-R-J1-PDC urothelial bladder carcinomas, 743489-274-T-PDC renal cell carcinoma, 138582-R-J1 Merkel cell tumor, K60290-347-R-J1 and K57222-313-R-J1-PDC glioblastomas, 653999-131-R-J2-PDC, LG0703-F948-PDC, and 349418-098-R-PDC non-small cell lung carcinomas, 885512-296-R-J2-PDC, 171881-019-R-J1-PDC breast carcinomas and 186277-243-T-J2-PDC and 233499-124-R-J2-PDC colon carcinomas were obtained from the NCI Patient-Derived Models Repository (PDMR, https://pdmr.cancer.gov). The established cell lines NCI/ADR-RES (RRID:CVCL_14520 and OVCAR-5 (RRID:CVCL_1628) ovarian carcinomas, 786-O (RRID:CVCL_1051) and A498 (RRID:CVCL_A498) renal cell carcinoma, NCI-H211 (ATCC, cat. CRL-5824; RRID:CVCL_1529), NCI-H196 (ATCC, cat. CRL-5823, RRID:CVCL_1509), SW 1271 (ATCC, cat. CRL-2177, RRID:CVCL_1716) and NCI-H1876 (ATCC, cat. CRL-5902, RRID:CVCL_1503) small cell lung carcinomas, MDA-MB-231 (RRID:CVCL_0062) and MDA-MB-468 (RRID:CVCL_0419)breast carcinomas (10-12). Pooled donor human umbilical vein endothelial cells (HUVEC, Lonza, cat. CC-2519) and human mesenchymal stem cells (hMSC, Lonza, cat. PT-2501) were purchased from Lonza (Walkersville, MD).
Cell Culture. All cells were maintained in an incubator at 37 degrees C and 5% CO2 with 95% humidity. The PDC lines were cultured according to standard operating procedures established by the NCI PDMR (https://pdmr.cancer.gov). Briefly all PDCs were thawed and cultured in Matrigel-coated flasks prepared with a working solution of 1X Ham's F-12 nutrient mix, without supplementation (Invitrogen, Waltham, MA, cat. 11765054), 100 U/mL penicillin-streptomycin (Invitrogen, cat. 15140122), and 2.5% Matrigel (Corning Inc., Corning, NY, cat. 354248) for the first three passages. […]
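Also: spheroids exposed to agents for seven days.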
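For viability, T/C in this document: 100% = DMSO vehicle control wells.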

| IC50 (compound alone) | Compound | viability, T/C (compound alone 0.1 µM) | viability, T/C (compound alone 1 µM) | viability, T/C (compound alone 3.16 µM) | viability, T/C (compound alone 10 µM) | viability, T/C (compound alone 0.316 µM) |
| --- | --- | --- | --- | --- | --- | --- |
| 309 nM and 15.2 nM | COc1cc(Nc2ncc3c(n2)-c2ccc(Cl)cc2C(c2c(F)cccc2OC)=NC3)ccc1C(=O)O | – | – | – | – | – |
| – | NC1CCC(NC2CC2c2ccccc2)CC1 (centres undefined) | 81.3, 104 (2×), 83.6, 101, 82.9, 88, 103, 92.1, 74.6, 91.9, 85.4, 96.5, 94.1, 91.6, 96.1, 87.8, 88.8, 84.9, 84.2 (2×), 102 (2×), 93.3, 91.7% | 78.6, 97.8, 85.1, 83.6, 87.8, 80.8, 90.9, 86.3, 71.8, 79.2, 88.2, 93.8, 90.5, 82.9, 92.9, 81.3, 86.8 (2×), 87.9, 81.9, 81.1 (2×), 80, 87.3, 83.8% | 75.1, 80.2 (2×), 93.4, 90.7, 79.5, 73.7, 95, 79.3, 83.3, 78.3, 84.3, 77.7, 66.1, 77, 82.5, 84.6, 86.7, 86.5, 81.7, 79.2, 83.2, 89, 83.6, 78.1% | 70.1, 85.1, 87.8, 75.7, 72.4, 72.6, 91.8, 63, 70.4, 79.8, 77.2, 64.5, 75.4 (2×), 88, 66.9, 85.8, 81.4, 70.6, 70.8, 73.7, 73.4, 68.7% | – |
| – | NC1CC1c1ccc(-c2cccc(O)c2)cc1 (centres undefined) | – | 85.9, 90.7, 90.1 (2×), 99.1 (2×), 83.7, 93, 84.1, 80.9, 85.2, 79.3, 98.9, 89.7, 90.4, 75.7, 100, 87.4, 102, 91.1, 95.9, 92.1, 84.2, 78.4% | – | 82.5, 85.9, 105, 89, 94, 87.6, 91, 85.1, 85.8 (2×), 81.7 (2×), 79.1 (2×), 90.2, 90.7, 88, 93, 80.7, 69.5, 83, 85.4, 80, 84% | 83.8 (2×), 76.5, 91.7, 95.7, 94.8, 91.2, 87.6, 93, 95, 90.2, 88.3, 90, 79.8, 95.6, 72.4, 79.7, 84.7, 86.2, 99.9, 79.2, 95.1, 84.1, 90.8% |
| – | O=C(C=Cn1cnc(-c2cc(C(F)(F)F)cc(C(F)(F)F)c2)n1)NNc1cnccn1 | – | – | – | – | 52% and 10.9% |

Source: PubChem BioAssay AID1918938 (Molecular Pharmacology Branch, DTP, NCI, 2023)
